Reference: article PMC10726135
The other results are listed elsewhere or left out. At the low end of the ranking the order means little. Measured with an extract: partners may take part in the binding.

Each sequence was assayed against T1, HNF4alpha8 (COS-7 nuclear extract) (UniProt P41235-5) (assay: protein-binding microarray). Conditions: COS-7 nuclear extract on double-stranded Agilent 4x180k PBM; binding buffer, salt, pH and temperature not given; high values mean tight binding; double strand, one strand shown; sequences stand for … in …GCCTAGGGAGATTAGAGTATCGGTCGA.
T1 sequence: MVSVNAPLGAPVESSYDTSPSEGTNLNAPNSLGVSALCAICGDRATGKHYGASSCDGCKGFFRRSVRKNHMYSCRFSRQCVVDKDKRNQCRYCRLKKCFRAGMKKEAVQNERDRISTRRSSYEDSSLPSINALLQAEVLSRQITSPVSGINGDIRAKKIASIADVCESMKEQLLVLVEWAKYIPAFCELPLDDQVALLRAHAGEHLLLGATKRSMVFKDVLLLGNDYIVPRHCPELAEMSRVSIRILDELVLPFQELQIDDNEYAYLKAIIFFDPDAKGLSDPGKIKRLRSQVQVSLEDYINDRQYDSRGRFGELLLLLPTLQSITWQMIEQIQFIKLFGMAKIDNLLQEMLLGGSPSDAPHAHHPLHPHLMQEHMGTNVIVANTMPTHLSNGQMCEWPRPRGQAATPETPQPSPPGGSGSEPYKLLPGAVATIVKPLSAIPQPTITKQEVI
Sequence TTCTTTGTACCGTATTTCAGACCACCCAGT has a binding signal (log2 normalized intensity) of 2.4. AGGTCAAAGTGCAACTACAAGGAGCAGCCT showed a binding signal (log2 normalized intensity) of 4.08. For TTGACCTTCAGCATCTTCAACTGTGTGAGC, the binding signal (log2 normalized intensity) was 2.59. GAAATGGGACCCAACTTTTGCTCTCTGGGA showed a binding signal (log2 normalized intensity) of -1.3. For TTCCCTAAGATTCTGGTCAAAGGTCAATGA, the binding signal (log2 normalized intensity) was 8.22. With GACCTAGGTGAGCAGGCAGAGGTCAATGTC the binding signal (log2 normalized intensity) was 3.65. TTGCACCTGGGCTGGAAAGGCCACCACAAA showed a binding signal (log2 normalized intensity) of -1.35. In the case of ACAGTTTTGTGTGTTTAATGTTTTCATTCT, the binding signal (log2 normalized intensity) is reported as 1.81. With TGGGACCAAAGGTGAAGGGGTCACCTCGCT the binding signal (log2 normalized intensity) was 3.63. For GAAAGCAAGGGCCAGATCAAAGGCTTCTAG, the binding signal (log2 normalized intensity) was -1.36. For TCCGGGCGATCCGGGCTCCGGGCGCCGCGC, the binding signal (log2 normalized intensity) was -1.21. CACAAAGCTTGGGTTCACATTCCAGCTCTG gave a binding signal (log2 normalized intensity) of 0.776. Work on TCTTCGAAGACACAAAGCTTGGGTTCACAT yielded a binding signal (log2 normalized intensity) of 2.32. For ACTTATCTCAGCCTGGCTAAAACCCTGGCC, the binding signal (log2 normalized intensity) was -1.45. Work on ACACACACACACACAGCTTGGAGCTCCTTG yielded a binding signal (log2 normalized intensity) of -1.28. GTCGCTTGCCAGTATGCCACTGGTTAGTTC gave a binding signal (log2 normalized intensity) of 0.782. Sequence GCTGCCAAACTGCCCAGCAGAAAAGCTGTA has a binding signal (log2 normalized intensity) of -1.3. With CCCAGGTCACCCACAACCTACCCTTTGCCC the binding signal (log2 normalized intensity) was 4.78. GGCATTTCACAGAGCAAGGGTCCAGATTAG gave a binding signal (log2 normalized intensity) of 3.07. Sequence CAGGGAATGAGAATGGCCAGAGTTCCTGTG has a binding signal (log2 normalized intensity) of -1.22. CCTTCATGTTTTCACCAAGAGGGAAAAGAT was tested, and the binding signal (log2 normalized intensity) was -0.605. With GGGCCCTCTTCCAGCTGAGACAAGGTCCAG the binding signal (log2 normalized intensity) was 2.29. ATGATCTTGCTCTCTTGTGCTCATGACAAA showed a binding signal (log2 normalized intensity) of 0.645. In the case of ATCTGACCTTTGGGACATTCCCCAGGCTGC, the binding signal (log2 normalized intensity) is reported as 3.59. Sequence AGTCTTAACCTCCTCTGTCACGATTCTTTT has a binding signal (log2 normalized intensity) of 1.1. AACAGACAAATGAAAGAGCTCAAATGACAG was tested, and the binding signal (log2 normalized intensity) was -1.19. Work on TCCTGATCTTTGACCTGGAGCATGACCCTT yielded a binding signal (log2 normalized intensity) of 5.6. With CTCGGGTGTTCACAGGTGACCTCTGGCCAC the binding signal (log2 normalized intensity) was 5.07. GGGAGATAAGGCCCGGCTGATGGGACCAAA showed a binding signal (log2 normalized intensity) of -1.33. Work on AACTCTCTGTGGATGTATGTCCAGATAACT yielded a binding signal (log2 normalized intensity) of 0.578. CATTTGAGTACATGCCTCTCCCAGTGGAAT showed a binding signal (log2 normalized intensity) of 1.27. With TAACAAAAATATCACAATCCTTAAGCAGCA the binding signal (log2 normalized intensity) was -1.29. TCAACTTTCAACATTTAACTTAACCACTCA was tested, and the binding signal (log2 normalized intensity) was 0.333. CTGGCTGCCCTGGGGATCAAAGCGTATGGG gave a binding signal (log2 normalized intensity) of -1.35. Sequence CCTGCCTCAGGCCGACCCCTGCCTGGACTG has a binding signal (log2 normalized intensity) of 2.86. For CCTCCAGCTCTTGGGGAACAATCGCCACTG, the binding signal (log2 normalized intensity) was -1.32. Sequence CAAATAGACTGGTTTGCACAGGTTACACAG has a binding signal (log2 normalized intensity) of -1.09. AGTTCAATTTCCAACAAATGAAACTAAAGG gave a binding signal (log2 normalized intensity) of -0.972. In the case of TGGGCAATGTCAACAAATACTGACCTGAGA, the binding signal (log2 normalized intensity) is reported as 1.59. TAACTCCCCCTTCATCTGGGACGTGGCTCA was tested, and the binding signal (log2 normalized intensity) was 1.34. Sequence AGCGAGTAAGGCCCGTGAGATTGAAAGCTA has a binding signal (log2 normalized intensity) of -1.39. For GAGGAATTTGGACTTTTACTCTTAGAGATA, the binding signal (log2 normalized intensity) was 3.83. CCCCCTGTGATTACTTCCACTCTTGCAGAT gave a binding signal (log2 normalized intensity) of 0.911. In the case of TATCTTCTGCTTTCAAAGCTCCAGTTCCAG, the binding signal (log2 normalized intensity) is reported as -1.34. TATCAGTATCAATGAGATCTCCCCACATTC showed a binding signal (log2 normalized intensity) of 1.14. With AAAGATGTTTAAATAGTGATAATGGATGGC the binding signal (log2 normalized intensity) was 0.702. Work on TGAGATACCACGTATCTTTCAGATCCCTTG yielded a binding signal (log2 normalized intensity) of -1.35. For GTCACTTCTGCTGCATTCTATTGGTCAAAG, the binding signal (log2 normalized intensity) was 1.44. Sequence CTTGTCTAAAAACATTGTGGAGCTCATGTA has a binding signal (log2 normalized intensity) of 1.25. Sequence CTAAACCTCTGCACACAGGATGTTTTCTCT has a binding signal (log2 normalized intensity) of -1.33. Sequence AGGAGGGGACTTCAAAGGCTCCCCTAATCC has a binding signal (log2 normalized intensity) of -1.26. TTTTCTTTTGGCATCTGTTGCTCAAGGAGG showed a binding signal (log2 normalized intensity) of 0.983. TTTGGGAACCGTTAGCAACCGGAAGTGGCT showed a binding signal (log2 normalized intensity) of -1.2. Work on AAGGCAGGCAGCATGGAATGACTTTGGGGA yielded a binding signal (log2 normalized intensity) of -1.36. For GAAGGGAAGCTCTGGGAGTGCCCTTGCCGA, the binding signal (log2 normalized intensity) was -0.148. For TATTTAGACTCAGCATGTCTTCTGACCTTT, the binding signal (log2 normalized intensity) was 7.33. AGCAATCTTGAGGTTTCCACTGATAAAGTT was tested, and the binding signal (log2 normalized intensity) was 0.569. For GACCTTTATATGTCCACCTTATCTAATGCC, the binding signal (log2 normalized intensity) was 2.22. AGACTTCAAAGCATTCCACATTCTCCACTG was tested, and the binding signal (log2 normalized intensity) was -1.45. Sequence GGAGAGCTGGACTTTCATCTGAGTCTCAGC has a binding signal (log2 normalized intensity) of 2.59. For AAAGGCGTTTGCTCCCATCCCCCCAAAGGC, the binding signal (log2 normalized intensity) was 5.12. For AGAACTATCAAACATTTTTGCAACATGAGG, the binding signal (log2 normalized intensity) was 0.388. In the case of CCCTCTCCTTTGGTGCAAATACCATCCCCA, the binding signal (log2 normalized intensity) is reported as 3.41. With TGCTGCCGCATTTTCCTTTGTTGGTTTTGC the binding signal (log2 normalized intensity) was 0.648. In the case of TGACCCCAGGGGAAACTCCATTTCCTTCTA, the binding signal (log2 normalized intensity) is reported as 1.11. GTCTTAGTATTAACGGTGAGGGAGGAGACT showed a binding signal (log2 normalized intensity) of -1.21. With ACCCTGTTTTGTAAACTCCCTTTGATGCGG the binding signal (log2 normalized intensity) was 0.325. For TGATGCATCAGACCCCTGAGTTTCGCAGCT, the binding signal (log2 normalized intensity) was 1.71. In the case of GGTGAGCTTTTATCTTAAGTGAGGTGGAAA, the binding signal (log2 normalized intensity) is reported as 1.04. Work on AAACCAAACTGCAGCTGCTGCACTGATAAG yielded a binding signal (log2 normalized intensity) of -1.44. AAAAGGGGACCGGCCTTTCCCGGCTGCCTA gave a binding signal (log2 normalized intensity) of -1.34. With AGAGGCAAGGAAAGATAAATAGTGACAAAT the binding signal (log2 normalized intensity) was -1.34. GAATCAATGCCTGATTCCAAAGTCCACTTT gave a binding signal (log2 normalized intensity) of 7.71. For CTCTCATTGGAATGAGCCTCCTGAAGATCC, the binding signal (log2 normalized intensity) was -1.29. TGACCCCTAGCACTTCCCGAGTGAGGCAAT gave a binding signal (log2 normalized intensity) of 2.07. Work on CGAAATGGGGATAAACACCCCCATCTATGC yielded a binding signal (log2 normalized intensity) of 1.38. TGCTGATTACATAGGAGGCTGCCTCTCTGT gave a binding signal (log2 normalized intensity) of -1.31. For ACATTTTACAACCTATTCTCTCTGAGGGCT, the binding signal (log2 normalized intensity) was -1.26. CCTCTCTCTCTCTCTCTCACACACACACAC gave a binding signal (log2 normalized intensity) of 1.81. For GAGCTCAAATGACAGAACAGTCCAGAGATT, the binding signal (log2 normalized intensity) was -1.21. In the case of AGGTAAGTACCAATATTTGTTAAGTACCCA, the binding signal (log2 normalized intensity) is reported as 0.424. Sequence AAGTTAACCCCATCACCCATGTGCAGGCAA has a binding signal (log2 normalized intensity) of 2.44. AATTAAGGAGATTTGGCTTTGAATTCCACT was tested, and the binding signal (log2 normalized intensity) was -1.3. AAAAACACTCAGTTAATTATGGTAGAGCTA gave a binding signal (log2 normalized intensity) of -1.39. In the case of GGAGGGTGAAGGTCACAATTTCCAGGAGTA, the binding signal (log2 normalized intensity) is reported as 3.15. AATTCTCATTCATCCAAGGACTTTGTAATC showed a binding signal (log2 normalized intensity) of 3.57. In the case of CTCTGGCCAGAGAGATGTCAGCCCAAGATA, the binding signal (log2 normalized intensity) is reported as 3.25. Sequence GCCACTGGTTAGTTCCAAAGGACAAATCTC has a binding signal (log2 normalized intensity) of 1.53. TGATCTGGTTTTTGTTGTTGAGCAAATCAT showed a binding signal (log2 normalized intensity) of 1.23. ATTACTGAAGTTCCAGAGCCTTCAAAGGAA showed a binding signal (log2 normalized intensity) of -1.23. Sequence CCACCTGCCCCAGGAATGCCTTTTCTTTCA has a binding signal (log2 normalized intensity) of 1.51. In the case of CAGTCACTCATGAGCCATCCTGAACAAATG, the binding signal (log2 normalized intensity) is reported as -1.2. In the case of AAGCCACAGAGATCAGAATCATAAAGCAGG, the binding signal (log2 normalized intensity) is reported as -1.28.
